Displacement data for 109 molecules are collected here from PubChem BioAssay AID1240 (Sanford-Burnham Center for Chemical Genomics, 2008).

The campaign covered roughly 50,000 compounds. About 800 (1.6%) showed an effect of 50% or more. The list shows a part of the results.

This assay has as its target Bcl-2-like protein 10 (Homo sapiens) (UniProt Q9HD36). As to the kind of experiment: Phenotype converters, Bcl-B/TR3 peptide binding displacement, primary biochemical FP (AID 1240).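 Also: 0% = Bcl-B with tracer peptide and DMSO and 100% = tracer peptide lacking Bcl-B.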 As to conditions: GST-Bcl-B / FITC-TR3 peptide fluorescence polarization; stronger effect = higher value; compound at 3.75 mg/L. Background: Fluorescence polarisation rises when a labelled molecule tumbles more slowly, as on binding a larger partner.
Sequence of UniProt Q9HD36 (Q9HD36 whole entry, looked up): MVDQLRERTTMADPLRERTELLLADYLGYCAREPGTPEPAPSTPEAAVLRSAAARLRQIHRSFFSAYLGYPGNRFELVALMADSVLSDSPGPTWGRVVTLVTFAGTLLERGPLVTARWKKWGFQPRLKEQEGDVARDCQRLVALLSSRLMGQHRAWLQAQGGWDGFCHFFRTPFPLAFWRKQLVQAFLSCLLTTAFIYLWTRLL
Turning to `CCCC1=NN(c2nc3ccccc3s2)C(=O)/C1=C(\C)N1CCOCC1`, the displacement is -15.1%. With `Cc1cccc(NC(=O)/C(=C\c2cccs2)NC(=O)c2ccccc2)c1` the figure was 2.4%; with `COc1ccc(N/C(N)=N/c2nc(C(F)(F)F)cc(=O)[nH]2)cc1`, -3.5%; with `COc1cc(OC)c(C2NC(=S)NC(C)=C2C(=O)Nc2ccc(Br)cc2)cc1OC` (centres undefined), 2.8%. The result for `O=C(CSc1nc2ccccc2c(=O)n1CC1CCCCC1)c1ccc(Cl)cc1` reads -10.4%; that for `O=C(c1ccc(F)cc1F)n1nnc2ccccc21`, -1.7%. With `CCCOC(=O)c1ccc(NS(=O)(=O)c2ccc(Cl)cc2)cc1` the figure was -9.7%; with `O=c1ccn(Cc2ccccc2)c(=O)[nH]1`, 5.9%; with `CCc1ccccc1NC(=O)C(CC)c1ccccc1` (centres undefined), 15%.

In the case of `CCOC(=O)c1sc(NC(=O)c2ccc(C)o2)nc1C`, the displacement was -14.5%. As to `NS(=O)(=O)c1ccc(CCNC(=O)c2cccc(C#CC3(O)CCCCC3)c2)cc1`, the displacement is -5.2%. As for `O=C(Nc1ccccc1C(=O)Nc1ccc(Cl)cc1)c1ccccn1`, the displacement was -6.5%. With `CCOc1ccc2c(c1)nc(C)n2CC`, the displacement was -0.6%. With `COc1ccc(C2C(C(=O)OCC(C)C)=C(C)NC3=C2C(=O)CC(c2ccccc2)C3)c(OC)c1` (centres undefined) the figure was 3.6%; with `CCOc1cc(/C=C2\SC(=S)N(Cc3ccccc3)C2=O)ccc1OCc1ccc([N+](=O)[O-])cc1`, -1%. As to `CCc1ccc(NC(=O)C(F)(F)F)cc1`, the displacement amounted to 7.7%.

With `COC(=O)C1=C(C(=O)OC)SC(=C2C(=S)C(C)(C)N(C(=O)c3ccc([N+](=O)[O-])cc3)c3cc(OC)ccc32)S1`, the displacement is -2.3%. `N#Cc1c(-c2ccc(Br)cc2)cc(-c2ccco2)c(C#N)c1N`: the displacement was determined as 76.9%.

Consider `O=C(CCNc1n[nH]c(=O)[nH]c1=O)N/N=C/CCc1ccccc1`, for which the displacement was found to be 11.6%. `Cc1ccc2nsnc2c1NC(=O)c1cc([N+](=O)[O-])ccc1Cl`: the displacement came out at 3.7%. In the case of `O=C(O)c1cccc(S(=O)(=O)NCc2ccccc2)c1`, the displacement was 1.4%. In the case of `CCC(=O)Nc1nc(C23CC4CC(CC(C4)C2)C3)c(C)s1`, the displacement was -2.7%. For the molecule `O=C1NCC(O)=C1C=NCCc1ccc(O)cc1`, the displacement worked out at 15.9%. With `CCc1ccc(/C=C(/C#N)c2nc3ccc(C)cc3[nH]2)cc1` the figure was 3.2%. With `O=C(N/N=C\c1cn(-c2ccccc2)nc1-c1ccccc1)c1ccc(Br)cc1` the figure was 3.8%; with `Cc1cc2nc(-c3cc(NC(=O)COc4ccccc4)ccc3O)oc2cc1C`, -24.7%. The result for `CC1=C(C)C(O)N(C(C)(C)c2cc(Cl)cc(Cl)c2)C1=O` (centres undefined) reads -0.6%; that for `COC(=O)c1sc(NC(=O)c2cc([N+](=O)[O-])ccc2Cl)c(C(=O)OC)c1C`, 14.5%; that for `Cc1cccc(-n2c(C)cc(C=C3C(=O)c4ccccc4C3=O)c2C)c1`, 138%.

For the molecule `O=C1C(=O)N(CN2CCOCC2)c2ccc(Br)cc21`, the displacement is 10.5%. As to `Cc1cc2nc3s/c(=C\c4ccc(-c5ccc(Cl)c([N+](=O)[O-])c5)o4)c(=O)n3c2cc1C`, the displacement is -8.2%. The result for `O=C(NCc1ccc(F)cc1)C(=O)Nc1ccccc1F` reads 11.3%; that for `Cc1c(C(=O)N2CCC(C)CC2)cccc1[N+](=O)[O-]`, -2.2%. With `Cc1no[n+]([O-])c1COc1ccc(/C=C2\N=C(c3ccccc3)OC2=O)cc1` the figure was -9.9%.

Turning to `COc1cc(C=O)ccc1OCCSc1ccc(C)cc1`, the displacement stood at 6.6%. With `Cc1ccc(S(=O)(=O)Nc2ccccc2Br)cc1[N+](=O)[O-]` the figure was 10.8%; with `CCOc1cc(/C=C2\SC(N3CCN(C4=NC(=O)/C(=C\c5ccc(O)c(OCC)c5)S4)CC3)=NC2=O)ccc1O`, 0.7%; with `CC1(C)CC(=O)c2c(oc3c(Br)cc(NS(=O)(=O)c4ccccc4)cc23)C1`, 1.4%.

Turning to `COC(=O)c1cc(NC(=O)c2cccc(OCc3ccccc3)c2)cc(C(=O)OC)c1`, the displacement was found to be 1.2%. `CC1(C)Cc2c(sc3ncn4nc(CSc5nc6ccccc6o5)nc4c23)C(C)(C)N1`: the displacement was determined as 12.7%.

As to `O=C(Nc1ccc(F)cc1F)N1CCN(Cc2ccc3c(c2)OCO3)CC1`, the displacement was -7.1%. The result for `COc1cc(/C=C(/C#N)c2nc3ccc(C)cc3[nH]2)c(Br)cc1O` reads -53.5%; that for `Nc1cc(NCCCC(=O)O)ccc1[N+](=O)[O-]`, 13.4%. The result for `O=C(O)c1cc2c(ccc3cc(Br)ccc32)oc1=O` reads 5.4%. With `CCOC(=O)c1c(N(C(C)=O)C(C)=O)sc(=S)n1-c1ccccc1` the figure was -6.5%. Take `CCOC(=O)c1sc(NC(=O)COc2ccc(C(C)(C)C)cc2)nc1C`: the displacement was -2.6%. `NC1=NC(=O)C(Cc2ccc(Br)cc2)S1` (centres undefined): the displacement was -3.8%.

Regarding `c1ccc(OCCSc2nc3ccccc3o2)cc1`, the displacement is 5.7%. `COc1ccc(C(=O)NNC(=O)Nc2ccc(Cl)cc2)cc1`: the displacement is -4.8%. The result for `COc1ccc2nc(NC(=O)CN3C(=O)c4ccccc4C3=O)sc2c1` reads 18%; that for `O=C1NC(=O)C(C=Nc2ccc(OC(F)F)cc2)C(=O)N1`, 5.3%. With `O=C1CSC(c2ccc(Cl)cc2Cl)N1CCN1CCCCC1` (centres undefined) the figure was -4.4%; with `CC(C)(C)NC(=O)c1ccccc1C(=O)O`, 0.3%; with `CCOC(=O)c1ccc(NC(=O)CN(c2ccc(OCC)cc2)S(=O)(=O)c2ccc(Br)cc2)cc1`, -0.3%. In the case of `O=C(c1cccc(F)c1)N1CCCCCC1`, the displacement was -5.3%.

For `CCOC(=O)c1c(NC(=O)c2ccco2)sc(C(=O)N(CC)CC)c1C`, the displacement is -3.6%. The result for `C=CCNS(=O)(=O)c1ccccc1[N+](=O)[O-]` reads -0.1%.

Take `NCCC12CC3CC(C1)CC(CCN)(C3)C2`: the displacement was -5.4%. On to `Cc1ccc(C(=O)O)cc1S(=O)(=O)N1CCC(C)CC1`, for which the displacement was 2.4%. For `COc1cccc(OCCOc2ccc(/C=C3/SC(=S)N(Cc4ccccc4)C3=O)cc2)c1`, the displacement is -5.4%.

In the case of `FC(F)(F)c1cccc(Nc2ncnc3ccc(Br)cc23)c1`, the displacement is 3.1%. The result for `O=c1[nH]c(=S)n(-c2ccc(Cl)cc2)c(O)c1/C=C1\C=Nc2ccccc21` reads -37.5%. With `CC1(C)CC(=O)C2=C(C1)Nc1ccccc1N(C(=O)c1ccccc1)C2c1cccc(F)c1` (centres undefined) the figure was 0.7%; with `O=C1OC(c2ccc(Cl)cc2)=N/C1=C\c1ccccc1[N+](=O)[O-]`, 6.7%; with `O=C(Nc1ccccc1C(=O)O)c1ccc(NC(=O)c2cccs2)cc1`, 0.7%.

As to `COC(=O)C1=C(C)Nc2cc(C(F)(F)F)ccc2S1`, the displacement came out at 4.3%. With `CCN(CC)CCOCCOc1ccc(Cl)cc1Cl` the figure was 1%. Turning to `CCOc1ccc(S(=O)(=O)N2CCSC2c2ccc3c4c(cccc24)CC3)cc1` (centres undefined), the displacement is -11.9%. Consider `COc1cccc(N(CC(=O)Nc2cc(C)cc(C)c2)S(=O)(=O)c2ccccc2)c1`, for which the displacement is -4.7%.

For `CCOC(=O)c1ccc(N2NC(=O)/C(=C/c3cccc(Br)c3)C2=O)cc1`, the displacement worked out at 27.9%. For `NC1=NC(=O)/C(=C\C=C\c2ccccc2)S1`, the displacement was 154%.

Consider `COC(=O)C1=C(C)NC2=C(C(=O)c3ccccc32)C1c1ccc(F)cc1` (centres undefined), for which the displacement came out at 10.2%.

Consider `Cc1cccc(C(=O)N2c3ccc([N+](=O)[O-])cc3-c3c(ssc3=S)C2(C)C)c1`, for which the displacement turned out to be 10.8%. For `O=C(Nc1ccccc1CO)c1cccc(F)c1`, the displacement was 13.8%.

`C/C(=N\N=C1\NC(=O)C(CC(=O)Nc2ccccc2Br)S1)c1ccc(Cl)cc1` (centres undefined): the displacement is -1.5%. Regarding `COc1cc(C(=O)NC2CCCCC2)cc(OC)c1OC`, the displacement stood at 7.9%. The result for `C/C(=C\C(=O)c1ccc(C)cc1)Nc1ccc(Br)c(C)c1` reads 4.4%; that for `CCOC(=O)C1C(=O)C=C(/C=C/c2cccs2)CC1c1ccccc1` (centres undefined), -17.1%. For `CC(C)c1ccccc1NS(=O)(=O)c1cccc([N+](=O)[O-])c1`, the displacement stood at 5.2%.

For `CN1C2=C(C(=O)CC(C)(C)C2)C(c2cccs2)C2=C1CC(C)(C)CC2=O`, the displacement was -6.5%.

As for `CC1=NN(c2ccc(Cl)c(Cl)c2)C(=O)/C1=C/c1ccc2c(c1)OCO2`, the displacement was 6.4%. On to `COc1ccc(S(=O)(=O)N(CC(=O)NCc2ccc(C)cc2)Cc2ccccc2)cc1OC`, for which the displacement was -11.1%. The result for `O=C(NC(=S)Nc1ccc(Cl)c(-c2nc3ccccc3[nH]2)c1)c1ccccc1Cl` reads -4.5%. With `O=C(CCCN1C(=O)c2cccc3cccc(c23)C1=O)Nc1nc(-c2cccc([N+](=O)[O-])c2)cs1`, the displacement is -9.8%. As for `O=C(Nc1ncc(Cc2ccccc2)s1)c1ccccc1[N+](=O)[O-]`, the displacement came out at 15.8%.

As to `CCN(CC)CCNC(=O)Cn1nc(C)c2ccccc2c1=O`, the displacement amounted to 2.6%. On to `Cc1ccc(N=Cc2cccc(O)c2O)cc1I`, for which the displacement was determined as 3.3%. With `COc1ccc(C2/C(=C(/O)c3ccccc3)C(=O)C(=O)N2c2cccc(C)c2)cc1` (centres undefined) the figure was 3.9%; with `O=C1NC(=O)/C(=C\c2ccc(-c3cccc(Cl)c3)o2)S1`, 9.8%.

Regarding `Cc1ccc(N2C(=O)NC(=O)/C(=C\c3ccc(I)o3)C2=O)cc1`, the displacement came to 6.4%. In the case of `O=C(COc1ccccc1Cl)N1CCN(c2ccccc2)CC1`, the displacement is -6.6%. For the molecule `O=C(Nc1nc(-c2ccccc2)cs1)c1ccc(Cl)cc1Cl`, the displacement is -11%. As for `O=C(Nc1ccc(-c2nc3ccccc3s2)cc1)c1ccc(Br)o1`, the displacement was -23.8%. With `CC1(C)c2ssc(=S)c2-c2ccccc2N1C(=O)CSc1nnc(N)s1` the figure was 21.8%; with `COc1ccc(Cl)cc1C(=O)NC(C)C`, -4.5%. As to `CC(C)(C)c1csc(N/N=C/c2ccc(Br)cc2)n1`, the displacement is -23.9%.

In the case of `COC(=O)c1cc(NC(=O)CCCC(=O)O)cc(C(=O)OC)c1`, the displacement is 6.1%.

On to `CN(C)c1ccc(/C=N/Nc2cc(N3CCOCC3)nc(N3CCOCC3)n2)cc1`, for which the displacement was determined as 5.7%. The result for `Oc1c(CN2CCCCC2)cc(CN2CCCCC2)nc1-c1ccccc1` reads 16.9%. The result for `COc1ccc(/C=N/NC(=O)CNc2cccc3ccccc23)c(O)c1` reads -10.7%; that for `C/C(CC(=O)Nc1cccc(C)n1)=N\NC(=O)c1ccco1`, -16.9%; that for `CC1=C(C(=O)OCCc2ccccc2)C(c2cccc([N+](=O)[O-])c2)NC(=O)N1C` (centres undefined), -1.2%.

Regarding `O=C(COc1ccc(Br)cc1)N1CCCCC1`, the displacement is -7.4%. In the case of `COc1ccc(/C=N/NC(=O)c2ccccn2)cc1Cl`, the displacement is -4.7%. With `CC(Oc1cccc(Cl)c1)C(=O)Nc1ccccc1Br` (centres undefined), the displacement is -3.7%.

Consider `CCCOC(=O)c1c(-c2ccc(Br)cc2)csc1N`, for which the displacement was -4.3%. As to `CCc1ccccc1N1C(=O)C2C(c3ccccc3Cl)OC3(C(=O)c4ccccc4C3=O)C2C1=O` (centres undefined), the displacement is -5.1%.

With `COC(=O)c1c(NC(=O)c2cc3ccccc3o2)sc2c1CCC(C)C2` (centres undefined), the displacement is -4.1%. For the molecule `CCCCOP(=O)(CP(=O)(OCCCC)OCCCC)CP(=O)(OCCCC)OCCCC`, the displacement is 14%.
